Measurements as given in PubChem BioAssay AID651820 (National Center for Advancing Translational Sciences (NCATS), 2012).
The whole screen tested about 340,000 compounds, of which about 12,000 (3.5%) were called active. Inconclusive means that the source gave no clear call. Such entries were picked first, then a sample of the others. Calls come from the whole dose curve; as a rule, active = well fitted inhibition curve with a large enough effect; inconclusive = small, poorly fitted or top-dose-only effect, or another doubt; inactive = no such curve, though single readings can be large or run the other way. No potency is given beside an inconclusive call; the fits are too rough.

assay: qHTS Assay for Inhibitors of Hepatitis C Virus (HCV); conditions: Huh7.5.1 HCVcc-Cre (HCVcc is cell-culture hepatitis C virus) infection, luciferase reporter, 44 h; activity change, negative = inhibition: at 41.8 µM (top of the series) unless noted
Outline: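 Luciferase read-out (15 sec integration) after a 15 min room-temperature substrate step quantifies HCVcc-Cre infection. Cells, 1,000 per well, had compound added 4 h post-plating, then virus at ~0.5 moi, and were cultured 44 h.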
% is set by controls: 0 for no effect and ±100 for the full control effect; potency is the fitted concentration of half-maximal effect; tags give direction and shape of the fitted curve.

| SMILES | Potency | activity change, negative = inhibition |
| --- | --- | --- |
| COc1ccc(Cl)cc1NC(=O)C(OC)c1ccccc1 (stereo not drawn) | active: 6.31 µM |  |
| CC(=O)c1cccc(NC(=O)COc2ccc3oc(=O)cc(C)c3c2)c1 | active: 15.8 µM |  |
| C=C(C)COc1ccc(-c2n[nH]c(C)c2-c2ccccc2OC)c(O)c1 | inconclusive [inhibitor, partial curve] |  |
| CCN1CCCC1CNCc1cccc(OC)c1OCc1ccccc1 (stereo not drawn) | inactive |  |
| CCN(C(C)=O)c1cnc(C=NNC(N)=S)c2ccccc12 | active: 6.31 µM |  |
| Cc1nnc(SCCCn2c(N3CCN(c4ccccc4)CC3)nc3c2c(=O)[nH]c(=O)n3C)s1 | inactive |  |
| COc1ccc(N(C(=O)CCC(=O)Nc2cc(C)on2)C(C(=O)NC2CCCC2)c2ccco2)cc1 (stereo not drawn) | inactive |  |
| CCC(=O)NCCNc1nc2cc(C)c(C)cc2cc1C#N | inactive |  |
| COc1ccccc1C(=O)NCC(=O)N/N=C/c1ccncc1 | inactive |  |
| CCCN=C1N(C)C[C@@H]2[C@@H]3C(=O)N(Cc4ccccc4)C(=O)[C@@H]3[C@](C)(C(=O)OC)N12 |  | inactive: 12% [at 8.37 µM] |
| CCc1ccc(OCC(O)CNC(C)(C)C)cc1 (stereo not drawn) | inconclusive [inhibitor, partial curve] |  |
| O=[N+]([O-])c1ccc(N/N=C/c2ccc(OCc3cccc4ccccc34)cc2)nc1 | inactive |  |
| O=c1[nH]c(SCc2ccc(Cl)cc2)nc2ccccc12 | inactive |  |
| Cc1ccc(C(=O)N/N=C(\CC(C)C)c2ccccc2)cc1 | inactive |  |
| N#Cc1c(Br)n(C2OC(CO)C(O)C2O)c2ncnc(N)c12 (stereo not drawn) | inconclusive [inhibitor, full curve] |  |
| CN(C)S(=O)(=O)c1ccc(Cl)c(NC(=O)C2CCN(S(=O)(=O)c3cccs3)CC2)c1 | inconclusive [inhibitor, single point] |  |
| Cc1ccc(Oc2ccc(OCC(=O)NC3CCS(=O)(=O)C3)cc2)cc1 (stereo not drawn) | inconclusive [inhibitor, partial curve] |  |
| Cc1ccccc1NC(C)C(=O)N/N=C/c1ccccc1OCc1cccc(Br)c1 (stereo not drawn) | inconclusive [inhibitor, single point] |  |
| COc1cc(OC)c(NC(=O)CCc2nc(-c3cccs3)no2)cc1Cl | inconclusive [inhibitor, partial curve, poor fit] |  |
| COc1cn(-c2ccccc2)nc1C(=O)NCc1ccccc1 | inconclusive [inhibitor, single point] |  |
| Cc1cccc(N2CCN(C(=O)COc3ccc4ccc(=O)oc4c3)CC2)c1C | active: 11.2 µM |  |
| COc1ccc(-c2csc3ncnc(NCCO)c23)cc1 | inconclusive [inhibitor, single point] |  |
| COc1ccc(OC)c2c(C)cc(N3CCN(C(=O)c4ccc(C)cc4)CC3)nc12 | inconclusive [inhibitor, partial curve] |  |
| Nc1cc(=O)[nH]c(SCc2csc(-c3ccccc3)n2)n1 | inconclusive [inhibitor, single point] |  |
| COC(=O)c1ccc(NC(=O)Nc2ccc3c(c2)nc(C)n3C)cc1 | inactive |  |

| SMILES | Potency | activity change, negative = inhibition |
| --- | --- | --- |
| O=C(NCCN1CCOCC1)/C(=C/c1ccc(Cl)cc1)NC(=O)c1ccccc1 | inconclusive [inhibitor, single point] |  |
| CC(=O)N1c2ccc3ccccc3c2C2C=CCC2C1c1ccc(Br)cc1 (stereo not drawn) | inactive |  |
| COc1ccc(NC(=O)c2cc(-c3cccs3)on2)cc1 | inactive |  |
| N=C1C=CC(=C(c2ccc(N)cc2)c2ccc(N)cc2)C=C1 | active: 6.31 µM |  |
| COc1ccc(C(=O)N2CCN(c3cccc(Cl)c3)CC2)c(OC)c1 | inconclusive [inhibitor, partial curve] |  |
| Cn1c(NCc2ccco2)nc2c1c(=O)n(Cc1ccc(Cl)cc1)c(=O)n2C | inconclusive [inhibitor, partial curve] |  |
| CCc1nc(N2CCN(S(C)(=O)=O)CC2)c2c3c(sc2n1)CCCC3 | inconclusive [inhibitor, single point] |  |
| COc1ccccc1NC(=O)c1cc(-c2cc(OC)c(OC)c(OC)c2)nc2ccccc12 | inconclusive [inhibitor, partial curve, poor fit] |  |
| Cc1cc(O)ccc1Nc1nc(-c2sc(N)nc2C)cs1 | inconclusive [inhibitor, single point] |  |
| CC1CCc2c(sc(NC(=O)/C=C/c3cccs3)c2C(=O)O)C1 (stereo not drawn) | inconclusive [inhibitor, single point] |  |
| COc1cc(/C=N/NC(=O)c2ccncc2)ccc1OC(=O)c1cccc(F)c1 | inactive |  |
| O=C(NC1CCCCC1)c1cccc(S(=O)(=O)N2CCCCC2)c1 | inactive |  |
| CCN(CC)C(=O)c1nn(-c2ccccc2)c2c1C1CCC2(C)C1(C)C (stereo not drawn) | active: 12.6 µM |  |
| COCCn1cnc2c1c(=O)n(Cc1ccc(Br)cc1)c(=O)n2Cc1ccccc1 | inconclusive [inhibitor, single point] |  |
| Cn1nc([N+](=O)[O-])nc1S(C)(=O)=O | active: 10 µM |  |
| Cc1nonc1NC(=O)CSc1nc(C2CCCCC2)nc2ccccc12 | inconclusive [inhibitor, single point] |  |
| CCS(=O)(=O)C(C)(CCl)C(=O)Nc1ccc(C(=O)OC)cc1 (stereo not drawn) | inactive |  |
| Cc1ccccc1NC(=O)c1cc2ccccn2n1 | inconclusive [inhibitor, single point] |  |
| COc1cc(/C=C(\C#N)C(=O)NC(C)C)cc(Cl)c1O | inconclusive [inhibitor, full curve, poor fit] |  |
| COC(=O)C1=C(c2ccc(F)cc2OCc2ccccc2)C[C@@H]2CC[C@H]1N2C(=O)NCc1ccc([N+](=O)[O-])cc1 | inconclusive [inhibitor, single point] |  |
| CN(C(=O)COC(=O)c1ccccc1SCC(=O)N1CCCC1)C1CCS(=O)(=O)C1 (stereo not drawn) | inactive |  |
| Cc1c(C(=O)NCc2ccc(F)cc2)oc2ccc(S(=O)(=O)N3CCOCC3)cc12 | inconclusive [inhibitor, partial curve, poor fit] |  |
| CN(C(=O)c1cccc(NC(=O)Cc2ccc(NC(=O)C3CCN(S(=O)(=O)c4cccc([N+](=O)[O-])c4)CC3)cc2)c1)C1CCC1 | inconclusive [inhibitor, partial curve] |  |
| Cc1ccc(S(=O)(=O)Nc2cccnc2)cc1 | inactive |  |
| CC(C)CC(=O)Nc1ccc(Nc2ccccc2)cc1 | active: 2.82 µM |  |

| SMILES | Potency | activity change, negative = inhibition |
| --- | --- | --- |
| CCOC(=O)C1CCN(Cc2nnnn2CCc2ccccc2)CC1 | inactive |  |
| CCc1cc2c3c(c1)/C(=C1/SC(N)=NC1=O)C(=O)N3C(C)(C)C=C2C | inactive |  |
| O=S(=O)(N/N=C\c1ccc(-c2ccccc2Cl)o1)c1ccccc1 | inconclusive [inhibitor, single point] |  |
| O=C(Nc1ccc2[nH]ncc2c1)c1ccc(F)cc1 | inactive |  |
| CC1CCN(CCCCOc2cccc(C(C)C)c2)CC1 | inconclusive [inhibitor, single point] |  |
| Cc1cc(NC(=O)CSc2n[nH]c(-c3ccc(Cl)cc3Cl)n2)no1 | inconclusive [inhibitor, full curve, poor fit] |  |
| CC(=O)NC(NC(=S)Nc1cccc(Br)c1)C(Cl)(Cl)Cl (stereo not drawn) | inactive |  |
| Cc1ccc(-c2nnc(Nc3ccc(C(=O)N(C)C)cc3)c3ccccc23)cc1S(=O)(=O)NCC1CCCO1 (stereo not drawn) | inconclusive [inhibitor, single point] |  |
| CCCC1=C(C(=O)OCC)C(c2cc(Cl)cc(OC)c2OCc2ccccc2)NC(=O)N1 (stereo not drawn) | inconclusive [inhibitor, single point] |  |
| C=CCn1cc(/C=N/NC(=O)COc2cccc3cccnc23)c2ccccc21 | inconclusive [inhibitor, single point] |  |
| COc1ccc(C(=S)N2CCOCC2)cc1OS(=O)(=O)c1ccc(Br)cc1 | inconclusive [inhibitor, single point] |  |
| CCCOc1ccc(/C=N/Nc2ccccn2)cc1OC | inconclusive [inhibitor, single point] |  |
| C[C@H](NC(=O)c1ncn(Cc2ccccc2)c1C(=O)N[C@@H](C)c1ccccc1)c1ccccc1 | inconclusive [inhibitor, full curve] |  |
| COc1cccc(Oc2cn[nH]c2-c2ccc(O)cc2O)c1 | inconclusive [inhibitor, single point] |  |
| CCOC(=O)c1ccc(NC(=O)c2ccc3c(c2)OCO3)cc1 | inconclusive [inhibitor, full curve, poor fit] |  |
| COc1ccc2c(C)cc(SCC(=O)c3ccc4c(c3)OCO4)nc2c1 | active: 10 µM |  |
| COc1ccc(C2c3c(ccc4ccccc34)Oc3ncn4nc(Cc5ccc(OC)c(OC)c5)nc4c32)cc1 (stereo not drawn) | inactive |  |
| Cc1cc([N+](=O)[O-])ccc1NC(=O)CN1CCN(Cc2ccccc2)CC1 | inconclusive [inhibitor, single point] |  |
| Cc1cc([N+](=O)[O-])nn1CC(=O)Nc1ccc(F)cc1 | inconclusive [inhibitor, single point] |  |
| O=C(NC(Cc1ccccc1)C(=O)O)c1cccnc1Cl (stereo not drawn) | inactive |  |
| CCCc1cc(=O)n2[nH]c(C)nc2n1 | inactive |  |
| CCc1nnc(NC(=O)c2cc3ccccc3oc2=O)s1 | inactive |  |
| CC(C)n1nc(C(=O)NCc2ccc3c(c2)OCO3)c2ccccc2c1=O | inconclusive [inhibitor, partial curve, poor fit] |  |
